# Measurements from PubChem BioAssay AID686978 (National Center for Advancing Translational Sciences (NCATS), 2013).
# About 64,000 (15%) of roughly 420,000 compounds were called active. The shares of active, inactive and inconclusive entries below differ from those in the screen. The call rests on the fitted dose curve; in most records, active means well fitted inhibition curve with a large enough effect; inconclusive means small, poorly fitted or top-dose-only effect; inactive means flat fitted curve, though single readings scatter. Potencies of inconclusive entries are left out as doubtful fits.
# Experiment: qHTS for Inhibitors of human tyrosyl-DNA phosphodiesterase 1 (TDP1): qHTS in cells in absence of CPT; further: nearly all actives have a fitted effect of over 55% in size
# Settings: DT40 Tdp1-/- hTDP1 cells, no CPT, ATP luminescence, 48 h; activity change, negative = growth inhibition: at 46.2 µM (top of the series) unless noted
# In short: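 Growth kinetics read by CellTiter-Glo luminescence after ≥48 hr at 37 °C. Cells: DT40 Tdp1-/- stably carrying human TDP1, 400 per well, compound exposure in the absence of CPT (DMSO vehicle).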
# On the % scale 0 is the no-effect control and ±100 the full control effect; potency means the concentration at half of the fitted maximal effect; tags describe the fitted curve by direction and shape.
Compound,Potency,"activity change, negative = growth inhibition"
CCC1CCCCN1CC(=O)Nc1cc(OC)c(OC)cc1C#N (stereo unspecified),"inconclusive [inhibitor, single point]",–
CS(=O)(=O)Nc1c(O)ccc2c1CCCC2C1=NCCN1 (stereo unspecified),inactive,–
O=C(Oc1cc(-c2ccccc2)no1)c1ccc(F)cc1,"inconclusive [inhibitor, partial curve]",–
COc1ccccc1CNC(=O)C1(c2cccs2)CCOCC1,"inconclusive [inhibitor, partial curve]",–
CCOC(=O)C1=C(COC(=O)CCOc2cccc(C)c2)NC(=O)NC1C (stereo unspecified),"inconclusive [inhibitor, single point]",–
COc1ccc(-c2nc3nc(C)cc(C)n3c2Nc2c(C)cccc2C)cc1,active: 18.4 µM,–
CCc1c(C)nc(SCC(=O)Nc2ccc3c(c2)OCCO3)[nH]c1=O,"inconclusive [inhibitor, single point]",–
Cc1ccc(-c2cc(N)nc(-c3ccccc3)c2)cc1,"inconclusive [inhibitor, single point]",–
COc1cccc(CC2(CO)CCN(S(=O)(=O)c3ccc(OC)cc3OC)CC2)c1,"inconclusive [inhibitor, partial curve, poor fit]",–
C[C@H]1Oc2ccccc2C(=O)C1C(=O)c1ccccc1 (stereo partly specified),inactive,–
COc1cc2[nH]c(=O)n(CCC(=O)N3CCN(Cc4ccc5c(c4)OCO5)CC3)c(=O)c2cc1OC,inactive,–
Cc1ccnc(NC(=O)c2ccc(S(=O)(=O)N3CCCC3)cc2)c1,inactive,–
CCc1nnc(NC(=O)CCS(=O)(=O)c2ccccc2)s1,"inconclusive [inhibitor, single point]",–
Fc1cnc(N2CCN(c3ccccc3)CC2)nc1N1CCN(c2ccccc2)CC1,inactive,–
C=CCC[C@@H](Cc1ccc(F)cc1)C(=O)OCCNC(=O)[C@@H](CC=C)CC(=O)N(CCO)Cc1ccccc1,active: 20.6 µM,–
COc1cc2cc(C#N)c(SCC(=O)OC(C)C)nc2cc1OC,"inconclusive [inhibitor, single point]",–
COc1ccc(C(C)(C)C)cc1S(=O)(=O)N1CCN(C)CC1,"inconclusive [inhibitor, partial curve, poor fit]",–
COc1cc(C(=O)OCC(=O)Nc2cccc(S(=O)(=O)N3CCCC3)c2)ccc1OCC(C)C,"inconclusive [inhibitor, partial curve]",–
Cc1ccnc(NS(=O)(=O)c2ccc(NC(=O)C3COc4ccccc4O3)cc2)n1 (stereo unspecified),"inconclusive [inhibitor, single point]",–
NS(=O)(=O)c1ccc(NC(=O)COC(=O)C2(c3ccccc3F)CCCC2)cc1,"inconclusive [inhibitor, single point]",–
CC(C)c1nc2sc3c(=O)[nH]cnc3c2c2c1CCCC2,"inconclusive [inhibitor, single point]",–
COc1ccc(Nc2nc(-c3sc(C)nc3C)cs2)c(OC)c1,active: 8.2 µM,–
O=C(c1cc2ccccc2o1)N1CCN(c2ccccc2Cl)CC1,"inconclusive [inhibitor, single point]",–
CN1CCN(CCCCOc2ccccc2-c2ccccc2)CC1,"inconclusive [inhibitor, partial curve]",–

Compound,Potency,"activity change, negative = growth inhibition"
O=C(NNC(=O)c1cccc(S(=O)(=O)N2CCc3ccccc32)c1)c1ccccc1,active: 5.17 µM,–
CCOc1ccc(S(=O)(=O)N(CC(=O)N2CCC(C(N)=O)CC2)c2ccc(F)cc2)cc1,inactive,–
Cc1ccsc1CN(C)C(=O)C(NC(=O)c1cccc(S(=O)(=O)N2CCOCC2)c1)C(C)C (stereo unspecified),"inconclusive [inhibitor, single point]",–
CCc1cc(=O)oc2c3c(cc(OCC(=O)NCCCC(=O)O)c12)OC(C)(C)CC3,inactive,–
CCCN(CCC)C1=N/C(=C\c2ccco2)C(=O)N1c1ccccc1,"inconclusive [inhibitor, partial curve]",–
CCCOc1ccc(C(=O)NNC(=S)NC(=O)c2ccccc2[N+](=O)[O-])cc1,active: 10.3 µM,–
CCN(CC)c1ccc(C2=NNC(=O)CC2C)cc1[N+](=O)[O-] (stereo unspecified),"inconclusive [inhibitor, partial curve]",–
O=S1(=O)CCOC[C@H](Cc2ccccc2)N1Cc1ccccc1,inactive,–
Cc1cc(C)c2c(N)c(C(=O)Nc3ccccc3F)sc2n1,inactive,–
Cc1ccc(C(=O)C2CCN(CC(=O)Nc3ccc4c(c3)OCCO4)CC2)cc1,"inconclusive [inhibitor, partial curve]",–
Cc1ccc(SCc2ccc(C(=O)N3CCCC3)cc2)cc1,"inconclusive [inhibitor, single point]",–
CCc1ccccc1N(C(=O)c1ccco1)C(C(=O)NC1CCCC1)c1cccnc1 (stereo unspecified),inactive,–
CCc1ccc2[nH]cc(S(=O)(=O)c3ccc(C(C)C)cc3)c(=O)c2c1,"inconclusive [inhibitor, single point]",–
CCOC(=O)C1(C)CCN1C(=O)c1ccc(C(C)(C)C)cc1 (stereo unspecified),active: 20.6 µM,–
COc1cc2c(cc1OC)C(c1c(Cl)cccc1Cl)=NCC2,active: 0.231 µM,–
CC(C)(C)NC(=O)C1C(c2ccc(C(F)(F)F)cc2)=Nc2ccccc2N1C(=O)c1cccc(C(F)(F)F)c1 (stereo unspecified),"inconclusive [inhibitor, single point]",–
CCN1CCN(S(=O)(=O)c2ccc(Cl)c(C(=O)NCc3nc4ccccc4[nH]3)c2)CC1,"inconclusive [inhibitor, single point]",–
COc1ccccc1C(=O)NNC1=C(C(=O)C(F)(F)F)CCC1,"inconclusive [inhibitor, single point]",–
CC1CCCCN1Cc1c(O)ccc2c(=O)c(-c3ccc(Cl)cc3Cl)coc12 (stereo unspecified),inactive,–
CN1CCSc2ccc(C(=O)NCc3cccc(Br)c3)cc21,inactive,–
Cc1ccc(S(=O)(=O)N(C)C[C@@H]2Oc3ccc(NS(=O)(=O)c4ccccc4)cc3CC(=O)N([C@@H](C)CO)C[C@H]2C)cc1,"inconclusive [inhibitor, single point]",–
COC(=O)c1ccc(COc2ccc(-c3nnn(CC(=O)NC(C)(C)C)n3)cc2)cc1,–,inconclusive: -32.8% [inhibitor]
O=C(NCc1ccc2c(c1)OCO2)c1ccc(CS(=O)Cc2ccc(Cl)cc2)o1 (stereo unspecified),inactive,–
CC1=NN(C(N)=S)C(=O)C1N=Nc1ccccc1 (stereo unspecified),"inconclusive [inhibitor, single point]",–

Compound,Potency,"activity change, negative = growth inhibition"
Cc1ccc(C)c(C(=O)CN2C3=NCCCN3c3ccccc32)c1,"inconclusive [inhibitor, single point]",–
COc1ccc(NS(=O)(=O)c2cccc(C(=O)Nc3ccccc3C(=O)O)c2)cc1,inactive,–
CC(NC(=O)NC(=O)c1cccc(Cl)c1)c1ccccc1 (stereo unspecified),"inconclusive [inhibitor, partial curve]",–
CC1CCN(C(=O)COC(=O)c2c[nH]c3ccccc23)CC1,inactive,–
CNC(=O)C1CCN(S(=O)(=O)c2c(C)noc2/C=C/c2ccc(C)cc2)CC1,"inconclusive [inhibitor, partial curve]",–
COC(=O)C1C(=O)C(C(=O)c2ccc([N+](=O)[O-])cc2)C(=O)CC1(C)C (stereo unspecified),inactive,–
Oc1ccccc1-c1nc(-c2cccs2)c(-c2cccs2)[nH]1,"inconclusive [inhibitor, single point]",–
O=C(CCNC(=O)N1CC(=O)Nc2ccccc21)NCc1cccc(C(F)(F)F)c1,inactive,–
CCOc1cc(N2CCCC2)ccc1[N+](=O)[O-],"inconclusive [inhibitor, partial curve, poor fit]",–
CCCCn1nc(CC(=O)NCCN(CC)CC)c2ccccc2c1=O,"inconclusive [inhibitor, single point]",–
COc1ccc(C(=O)Cn2c(NCCCO)nc3ccccc32)cc1OC,"inconclusive [inhibitor, single point]",–
Cc1ccc(CN(C(=O)c2ccc(C(C)(C)C)cc2)c2ccccn2)o1,"inconclusive [inhibitor, single point]",–
Cc1ccc(C(C)C)c(OCC(O)CNC2CCCC2)c1 (stereo unspecified),active: 16.4 µM,–
COc1ccccc1NC(=O)CSc1ncc2c(n1)-c1ccccc1N(Cc1ccccc1C)S2(=O)=O,"inconclusive [inhibitor, single point]",–
Cc1ccc(S(=O)(=O)N2CCC(C(=O)N3CCN(Cc4ccccc4)CC3)CC2)cc1,"inconclusive [inhibitor, partial curve]",–
COc1ccc(C(=O)OCC(=O)Nc2cccc(C(C)=O)c2)c(OC)c1OC,"inconclusive [inhibitor, single point]",–
CC(C)(C)c1ccc(C(=O)Nc2ccc(CC(=O)O)cc2)o1,inactive,–
COc1ccc(/C=C(\NC(=O)c2ccco2)C(=O)NCc2ccco2)cc1,–,inconclusive: -20.4% [inhibitor]
CCn1c2ccccc2c2cc(/C=N/n3c(C)nnc3C)ccc21,"inconclusive [inhibitor, single point]",–
Cc1c(Cl)cccc1NC(=O)NCc1cccnc1,inactive,–
COc1ccccc1NC(=O)c1ccc(C)c(S(=O)(=O)N2CCCCC2)c1,active: 25.9 µM,–
C=C1C=C(C(F)F)n2ncc(C(=O)Nc3ccc(N(CC)CC)cc3)c2N1,inactive,–
CCN(C(=S)Nc1cccc(C)c1)c1ccccc1,"inconclusive [inhibitor, single point]",–
